Test results as given in the supplement of paper PMC4967469.

Experiments:
Experiment in all cases: Viability of human cancer cell lines after 72 h of drug (GDSC screen)
Cytarabine = compound: Nc1ccn([C@@H]2O[C@H](CO)[C@@H](O)[C@@H]2O)c(=O)n1 [Cytarabine]; conditions: top dose 2 µM
Protocol: (§1)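 Human cancer cell lines in 384-well plates, medium with 10% serum, drug for 72 h over a 256-fold dose range (nine 2-fold or five 4-fold steps up to the top dose). Adherent lines were fixed and stained with the nucleic acid dye Syto60, suspension lines read with resazurin; signal relative to control wells, capped at 0 and 100%. One two-parameter sigmoid per drug and line, fitted in a mixed model over all curves with the slope shared within a line.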

QL-X-138 = compound: C=CC(=O)Nc1cc(-n2c(=O)ccc3cnc4ccc(-c5cn[nH]c5)cc4c32)ccc1C [QL-X-138]; conditions: top dose 10.24 µM; top dose inferred
Protocol: as §1

(5Z)-7-Oxozeaenol = compound: COc1cc(O)c2c(c1)/C=C/C[C@H](O)[C@H](O)C(=O)/C=C\C[C@H](C)OC2=O [(5Z)-7-Oxozeaenol]; conditions: top dose 10 µM; top dose inferred
Protocol: as §1

MPS-1-IN-1 = compound: COc1cc(N2CCC(O)CC2)ccc1Nc1cc(Nc2ccccc2S(=O)(=O)C(C)C)c2cc[nH]c2n1 [MPS-1-IN-1]; conditions: top dose 20 µM; top dose inferred
Protocol: as §1

Thapsigargin = compound: C/C=C(/C)C(=O)O[C@H]1C(C)=C2[C@H]([C@@H]1OC(=O)CCCCCCC)[C@@](C)(OC(C)=O)C[C@H](OC(=O)CCC)[C@@]1(O)[C@H]2OC(=O)[C@@]1(C)O [Thapsigargin]; conditions: top dose 0.512 µM; top dose inferred
Protocol: as §1

GSK269962A = compound: CCn1c(-c2nonc2N)nc2cnc(Oc3cccc(NC(=O)c4ccc(OCCN5CCOCC5)cc4)c3)cc21 [GSK269962A]; conditions: top dose inferred
Protocol: as §1

CHIR-99021 = compound: Cc1cnc(-c2cnc(NCCNc3ccc(C#N)cn3)nc2-c2ccc(Cl)cc2Cl)[nH]1 [CHIR-99021]
Protocol: as §1

KU-55933 = compound: O=c1cc(-c2cccc3c2Sc2ccccc2S3)oc(N2CCOCC2)c1 [KU-55933]; conditions: top dose 10 µM
Protocol: as §1

Zibotentan = compound: COc1nc(C)cnc1NS(=O)(=O)c1cccnc1-c1ccc(-c2nnco2)cc1 [Zibotentan]; conditions: top dose 20 µM; top dose inferred
Protocol: as §1

CMK = compound: Cc1ccc(-c2c(C(=O)CCl)n(CCCO)c3ncnc(N)c23)cc1 [CMK]; conditions: top dose 4 µM; top dose inferred
Protocol: as §1

ABT-869 = compound: Cc1ccc(F)c(NC(=O)Nc2ccc(-c3cccc4[nH]nc(N)c34)cc2)c1 [ABT-869]; conditions: top dose 1.024 µM; top dose inferred
Protocol: as §1

ABT-888 = compound: C[C@]1(c2nc3c(C(N)=O)cccc3[nH]2)CCCN1 [ABT-888]; conditions: top dose 5 µM; top dose inferred
Protocol: as §1

CP466722 = compound: COc1cc2ncnc(-n3nc(-c4ccccn4)nc3N)c2cc1OC [CP466722]; conditions: top dose 16 µM; top dose inferred
Protocol: as §1

[1] = top dose 2.5 µM, screen: GDSC drug entry 127
[2] = top dose 5 µM, screen: GDSC drug entry 1192
[3] = top dose 2.56 µM, screen: GDSC drug entry 154
[4] = top dose 10 µM, screen: GDSC drug entry 1241, top dose inferred

Cell Line | AUC (Cytarabine) | pIC50 (Cytarabine) | AUC (QL-X-138) | pIC50 (QL-X-138) | AUC ((5Z)-7-Oxozeaenol) | pIC50 ((5Z)-7-Oxozeaenol) | AUC (MPS-1-IN-1) | pIC50 (MPS-1-IN-1) | AUC (Thapsigargin) | pIC50 (Thapsigargin) | AUC (GSK269962A; [1]) | pIC50 (GSK269962A; [1]) | AUC (GSK269962A; [2]) | pIC50 (GSK269962A; [2]) | AUC (CHIR-99021; [3]) | pIC50 (CHIR-99021; [3]) | AUC (CHIR-99021; [4]) | pIC50 (CHIR-99021; [4]) | AUC (KU-55933) | pIC50 (KU-55933) | AUC (Zibotentan) | pIC50 (Zibotentan) | AUC (CMK) | pIC50 (CMK) | AUC (ABT-869) | pIC50 (ABT-869) | AUC (ABT-888) | pIC50 (ABT-888) | AUC (CP466722) | pIC50 (CP466722)
AMO-1 (haematopoietic neoplasm, suspension) | 0.933 | < 5.70 | 0.766 | 5.49 | 0.695 | 5.70 | 0.811 | 5.05 | 0.233 | 8.21 | 0.981 | < 5.60 | 0.877 | 5.42 | 0.982 | < 5.59 | 0.866 | 5.16 | 0.989 | < 5.00 | 0.991 | < 4.70 | 0.971 | < 5.40 | 0.987 | < 5.99 | 0.991 | < 5.30 | 0.779 | 5.25
ARH-77 (myeloma, suspension) | 0.944 | < 5.70 | 0.626 | 5.85 | 0.737 | 5.54 | 0.909 | < 4.70 | 0.64 | 7.11 | 0.986 | < 5.60 | 0.956 | < 5.30 | 0.987 | < 5.59 | 0.978 | < 5.00 | 0.951 | < 5.00 | 0.981 | < 4.70 | 0.887 | < 5.40 | 0.98 | < 5.99 | 0.976 | < 5.30 | 0.657 | 5.57
BB49-HNC (head and neck, adherent) | 0.823 | 5.73 | 0.976 | < 4.99 | 0.385 | 6.58 | 0.978 | < 4.70 | 0.939 | < 6.29 | 0.305 | 7.46 | 0.18 | 7.67 | 0.971 | < 5.59 | 0.851 | < 5.00 | 0.923 | < 5.00 | 0.975 | < 4.70 | 0.966 | < 5.40 | 0.969 | < 5.99 | 0.978 | < 5.30 | 0.972 | < 4.80
BC-1 (B-cell lymphoma, suspension) | 0.988 | < 5.70 | 0.529 | 6.12 | 0.712 | 5.65 | 0.859 | 4.89 | 0.487 | 7.53 | 0.87 | 5.75 | 0.605 | 6.24 | 0.989 | < 5.59 | 0.922 | < 5.00 | 0.956 | < 5.00 | 0.99 | < 4.70 | 0.897 | 5.44 | 0.979 | < 5.99 | 0.989 | < 5.30 | 0.645 | 5.63
CHP-126 (neuroblastoma, suspension) | 0.956 | < 5.70 | 0.804 | 5.28 | 0.626 | 5.85 | 0.848 | 4.81 | 0.508 | 7.47 | 0.966 | < 5.60 | 0.986 | < 5.30 | 0.955 | < 5.59 | 0.986 | < 5.00 | 0.963 | < 5.00 | 0.986 | < 4.70 | 0.853 | 5.49 | 0.976 | < 5.99 | 0.987 | < 5.30 | – | –
EKVX (lung adenocarcinoma, adherent) | 0.958 | < 5.70 | 0.863 | < 4.99 | 0.767 | 5.01 | 0.917 | < 4.70 | 0.643 | 6.90 | 0.957 | < 5.60 | 0.83 | < 5.30 | – | – | – | – | 0.899 | < 5.00 | 0.969 | < 4.70 | 0.951 | < 5.40 | 0.962 | < 5.99 | 0.949 | < 5.30 | 0.938 | < 4.80
IA-LM (large cell lung carcinoma, adherent) | 0.897 | < 5.70 | 0.738 | 5.47 | 0.749 | 5.44 | 0.964 | < 4.70 | 0.2 | 8.44 | – | – | 0.94 | < 5.30 | – | – | – | – | 0.945 | < 5.00 | 0.979 | < 4.70 | 0.835 | 5.51 | 0.981 | < 5.99 | 0.981 | < 5.30 | 0.918 | < 4.80
LU-65 (large cell lung carcinoma, suspension) | 0.987 | < 5.70 | 0.845 | 5.02 | 0.966 | < 5.00 | 0.787 | 4.98 | 0.538 | 7.38 | – | – | – | – | – | – | – | – | 0.978 | < 5.00 | 0.986 | < 4.70 | 0.947 | < 5.40 | 0.982 | < 5.99 | 0.987 | < 5.30 | 0.768 | 5.15
NB1 (neuroblastoma, semi-adherent) | 0.753 | 6.14 | 0.886 | < 4.99 | 0.721 | 5.55 | 0.71 | 5.28 | 0.497 | 7.50 | 0.886 | < 5.60 | 0.841 | 5.40 | 0.926 | < 5.59 | 0.958 | < 5.00 | 0.977 | < 5.00 | 0.975 | < 4.70 | 0.88 | < 5.40 | 0.972 | < 5.99 | 0.984 | < 5.30 | – | –

pIC50: −log10 of the molar value. Lines with a small IC50 respond at low doses; a fit beyond the top or the lowest dose is shown as a bound at that dose. AUC sums up the same curve from the lowest dose to the 256-fold higher top dose; values near 1 show little effect. For some assays here: The top dose, if marked as inferred, comes from the curve model; the source does not state it. For some assays here: Drugs with an entry number were screened twice under separate entries, and the two screens often disagree.
